{"source": "PubChem BioAssay AID1460", "about": "(National Center for Advancing Translational Sciences (NCATS), 2008)", "note": "Screen size: about 270,000 compounds; about 5,800 (2.1%) were called active. The shares of active, inactive and inconclusive entries below differ from those in the screen. The call rests on the fitted dose curve; in most records, active means well fitted inhibition curve with a large enough effect; inconclusive means small, poorly fitted or top-dose-only effect; inactive means flat fitted curve, though single readings scatter. Potencies beside an inconclusive call are fits to weak or partial responses and may not hold up. Potency means the concentration at half of the fitted maximal effect; tags describe the fitted curve by direction and shape."}
{"molecular_target": "Microtubule-associated protein tau (Homo sapiens) (UniProt P10636)", "sequence (P10636 whole entry, looked up, the tested form may be a part)": "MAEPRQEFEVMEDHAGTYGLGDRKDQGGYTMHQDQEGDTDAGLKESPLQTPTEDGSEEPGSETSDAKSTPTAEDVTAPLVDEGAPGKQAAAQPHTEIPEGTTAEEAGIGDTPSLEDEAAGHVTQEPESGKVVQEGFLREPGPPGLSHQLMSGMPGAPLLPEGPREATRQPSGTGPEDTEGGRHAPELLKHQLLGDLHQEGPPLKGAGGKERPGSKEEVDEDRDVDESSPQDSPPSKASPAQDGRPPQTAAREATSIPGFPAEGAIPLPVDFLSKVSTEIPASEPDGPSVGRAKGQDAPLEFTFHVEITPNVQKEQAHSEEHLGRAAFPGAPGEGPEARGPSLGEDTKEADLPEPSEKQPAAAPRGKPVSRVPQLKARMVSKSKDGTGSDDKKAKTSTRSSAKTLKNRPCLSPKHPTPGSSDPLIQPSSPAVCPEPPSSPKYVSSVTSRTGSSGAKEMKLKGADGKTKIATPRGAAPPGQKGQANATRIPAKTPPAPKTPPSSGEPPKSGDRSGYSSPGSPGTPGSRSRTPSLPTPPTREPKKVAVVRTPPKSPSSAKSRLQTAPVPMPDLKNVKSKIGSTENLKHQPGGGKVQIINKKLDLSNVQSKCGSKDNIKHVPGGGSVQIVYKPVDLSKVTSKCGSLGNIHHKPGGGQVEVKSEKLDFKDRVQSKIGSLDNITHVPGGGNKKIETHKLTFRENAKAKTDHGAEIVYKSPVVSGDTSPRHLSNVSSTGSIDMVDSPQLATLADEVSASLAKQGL", "assay": "qHTS for Inhibitors of Tau Fibril Formation, Thioflavin T Binding; further: nearly all actives have a fitted effect of over 55% in size", "settings": "recombinant tau K18 P301L (four-repeat tau fragment), heparin-induced fibrillization, ThT fluorescence; series mostly up to 57.4 µM", "outline": "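Aggregation was driven by heparin (20 uM final) acting on recombinant tau […] bearing P301L in 100 mM sodium acetate pH 7; fibrils were detected with Thioflavin T.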"}
{"smiles": "CC(C)N1CCN(c2ccc(O)cc2)CC1", "Potency": "active: 25.1 µM"}
{"smiles": "CCc1ccc(N2C(=O)NC(=O)/C(=C/c3cccn3CCOc3ccc(C(C)CC)cc3)C2=O)cc1", "note": "(centres undefined)", "Potency": "inconclusive: 7.08 µM [inhibitor, partial curve]"}
{"smiles": "CNC(C)Cc1ccccc1OC", "note": "(centres undefined)", "Potency": "inactive"}
{"smiles": "CCCNC(=O)c1cnn2c(C)c(Cc3c(C)cc(C)cc3C)c(C)nc12", "Potency": "inconclusive: 28.2 µM [inhibitor, partial curve]"}
{"smiles": "O=[N+]([O-])c1ccc(N2CCNCC2)cc1N1CCCCC1", "Potency": "inconclusive: 28.2 µM [inhibitor, partial curve, poor fit]"}
{"smiles": "COc1ccc(-c2nc(CSCC(=O)N3CCN(c4ccc(F)cc4)CC3)c(C)o2)cc1", "Potency": "inconclusive: 15.8 µM [inhibitor, partial curve, poor fit]"}
{"smiles": "COc1ccc(N2C(=O)NC(=O)/C(=C/c3ccc4c(c3)Cc3ccccc3-4)C2=O)cc1", "Potency": "inconclusive: 10 µM [inhibitor, partial curve]"}
{"smiles": "Cc1ccc(N(C)C(=O)Oc2ccc(C(=O)c3ccc(Cl)cc3)cc2)cc1", "Potency": "inconclusive: 1.26 µM [inhibitor, full curve, poor fit]"}
{"smiles": "O=C1NC(=O)N(c2ccc3c(c2)OCO3)C(=O)/C1=C/c1ccc(N2CCCCC2)o1", "Potency": "inconclusive: 25.1 µM [inhibitor, partial curve]"}
{"smiles": "CN1C(=O)N(C)C(=O)C2(Cc3cc(N)ccc3N3CCN(c4ccccc4F)CC32)C1=O", "note": "(centres undefined)", "Potency": "inconclusive: 14.1 µM [inhibitor, partial curve]"}
{"smiles": "CC1=NN=C(c2ccc(N)cc2)c2cc3c(cc2C1)OCO3", "Potency": "inconclusive: 31.6 µM [inhibitor, single point]"}
{"smiles": "COc1ccc(N/N=C/c2c(O)n(-c3ccc(C)c(C)c3)c(=O)[nH]c2=O)cc1", "Potency": "active: 17.8 µM"}
{"smiles": "CN1C(=O)C(Cc2cccc3ccccc23)C(=O)N(C)C1=O", "Potency": "active: 25.1 µM"}
{"smiles": "O=C(O)c1cc[c]([Hg][Cl])cc1", "Potency": "inconclusive: 20 µM [inhibitor, partial curve]"}
{"smiles": "Oc1cc2c(cc1O)[C@H]1c3ccccc3CNC1CC2", "note": "(some centres undefined)", "Potency": "inconclusive: 15.8 µM [inhibitor, partial curve]"}
{"smiles": "CCC(C)OC(=O)c1c(N)n(Cc2cccs2)c2nc3ccccc3nc12", "note": "(centres undefined)", "Potency": "inconclusive: 1 µM [inhibitor, full curve]"}
{"smiles": "COc1ccc2c(c1)NP(=S)(Oc1ccccc1)N2", "note": "(centres undefined)", "Potency": "active: 8.91 µM"}
{"smiles": "CC(=O)O.CC(=O)O.[Cd]", "Potency": "inconclusive: 39.8 µM [inhibitor, partial curve, poor fit]"}
{"smiles": "O=C1NC(=S)N(c2ccccc2F)C(=O)/C1=C\\c1cccs1", "Potency": "inconclusive: 14.1 µM [inhibitor, partial curve, poor fit]"}
